Laboratory results taken from article PMC12820563, “FoxP3 forms a head-to-head dimer in vivo and stabilizes its multimerization on adjacent microsatellites”.
The other results are listed elsewhere or left out.

Target: T1, MBP-FoxP1dN (Mus musculus, UniProt P58462 326-579)
T1 sequence: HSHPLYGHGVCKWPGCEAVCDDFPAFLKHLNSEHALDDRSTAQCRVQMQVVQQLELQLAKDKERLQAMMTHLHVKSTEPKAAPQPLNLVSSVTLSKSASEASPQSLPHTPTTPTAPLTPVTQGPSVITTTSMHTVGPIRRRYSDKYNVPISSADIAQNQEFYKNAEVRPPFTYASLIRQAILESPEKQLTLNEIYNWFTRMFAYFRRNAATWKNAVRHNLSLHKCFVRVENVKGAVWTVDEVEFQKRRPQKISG
Experiment: PD-seq (MBP pull-down with sequencing); 20 mM Tris-HCl pH 7.5, 100 mM NaCl, 1.5 mM MgCl2, 0.4 uM protein, 0.1 uM dsDNA library, 30 min, room temperature, amylose pull-down; high values mean tight binding
Details: protein: recombinant; tags: His6-MBP; chain copies: 2; dsDNA, one strand shown
Outline: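 Binding is the reads-per-million enrichment of pull-down relative to input, pooled across replicates. For this, 0.4 µM His6-MBP-tagged mouse FoxP3 or FoxP1 fragment lacking the N-terminus, made in E. coli, was incubated with 0.1 µM Klenow-filled double-stranded degenerate DNA library for 30 min at room temperature in Tris pH 7.5 buffer with NaCl and MgCl2. Complexes bound to amylose resin were washed three times before proteinase K released the DNA for PCR barcoding and Illumina sequencing.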

Sequence | binding signal
GATGATTGTTCTCCCAGCTGATGAATTAGCGTGTTCGAGTAAACAAATTTTCCTAATCTTTCTGTTCAAGCGCCATCTAC | 0.937 RPM ratio (pull-down/input)
GATGATTGTTCTCCCAGCTGATGAATTATAGGGATCGAGTAAACAAATTTTCCTAATCTTTCTGTTCAAGCGCCATCTAC | 0.912 RPM ratio (pull-down/input)
GATGATTGTTCTCCCAGCTGATGAATTTTTATATTCGAGTAAACAAATTTTCCTAATCTTTCTGTTCAAGCGCCATCTAC | 1.1 RPM ratio (pull-down/input)
GATGATTGTTCTCCCAGCTGATGAATTCTCAGCGTCGAGTAAACAAATTTTCCTAATCTTTCTGTTCAAGCGCCATCTAC | 0.837 RPM ratio (pull-down/input)
GATGATTGTTCTCCCAGCTGATGAATTGCTCCGGTCGAGTAAACAAATTTTCCTAATCTTTCTGTTCAAGCGCCATCTAC | 0.888 RPM ratio (pull-down/input)
GATGATTGTTCTCCCAGCTGATGAATTAGTGATCTCGAGTAAACAAATTTTCCTAATCTTTCTGTTCAAGCGCCATCTAC | 0.985 RPM ratio (pull-down/input)
GATGATTGTTCTCCCAGCTGATGAATTGGACAAATCGAGTAAACAAATTTTCCTAATCTTTCTGTTCAAGCGCCATCTAC | 1.05 RPM ratio (pull-down/input)
GATGATTGTTCTCCCAGCTGATGAATTTAGGTCGTCGAGTAAACAAATTTTCCTAATCTTTCTGTTCAAGCGCCATCTAC | 0.87 RPM ratio (pull-down/input)
GATGATTGTTCTCCCAGCTGATGAATTTCGACGATCGAGTAAACAAATTTTCCTAATCTTTCTGTTCAAGCGCCATCTAC | 0.836 RPM ratio (pull-down/input)
GATGATTGTTCTCCCAGCTGATGAATTCTTCTAGTCGAGTAAACAAATTTTCCTAATCTTTCTGTTCAAGCGCCATCTAC | 0.874 RPM ratio (pull-down/input)
GATGATTGTTCTCCCAGCTGATGAATTAATGACGTCGAGTAAACAAATTTTCCTAATCTTTCTGTTCAAGCGCCATCTAC | 0.95 RPM ratio (pull-down/input)
GATGATTGTTCTCCCAGCTGATGAATTACCACTTTCGAGTAAACAAATTTTCCTAATCTTTCTGTTCAAGCGCCATCTAC | 1.07 RPM ratio (pull-down/input)
GATGATTGTTCTCCCAGCTGATGAATTGTTCTATTCGAGTAAACAAATTTTCCTAATCTTTCTGTTCAAGCGCCATCTAC | 1.34 RPM ratio (pull-down/input)
GATGATTGTTCTCCCAGCTGATGAATTATTCAGGTCGAGTAAACAAATTTTCCTAATCTTTCTGTTCAAGCGCCATCTAC | 0.916 RPM ratio (pull-down/input)
GATGATTGTTCTCCCAGCTGATGAATTTAAATCATCGAGTAAACAAATTTTCCTAATCTTTCTGTTCAAGCGCCATCTAC | 0.98 RPM ratio (pull-down/input)
GATGATTGTTCTCCCAGCTGATGAATTAGCCGGGTCGAGTAAACAAATTTTCCTAATCTTTCTGTTCAAGCGCCATCTAC | 0.765 RPM ratio (pull-down/input)
GATGATTGTTCTCCCAGCTGATGAATTCGTTGCGTCGAGTAAACAAATTTTCCTAATCTTTCTGTTCAAGCGCCATCTAC | 0.998 RPM ratio (pull-down/input)
GATGATTGTTCTCCCAGCTGATGAATTTCTCATGTCGAGTAAACAAATTTTCCTAATCTTTCTGTTCAAGCGCCATCTAC | 0.813 RPM ratio (pull-down/input)
GATGATTGTTCTCCCAGCTGATGAATTCTTCATTTCGAGTAAACAAATTTTCCTAATCTTTCTGTTCAAGCGCCATCTAC | 0.908 RPM ratio (pull-down/input)
GATGATTGTTCTCCCAGCTGATGAATTTCGGTACTCGAGTAAACAAATTTTCCTAATCTTTCTGTTCAAGCGCCATCTAC | 0.848 RPM ratio (pull-down/input)

Sequence | binding signal
GATGATTGTTCTCCCAGCTGATGAATTAGCTGGTTCGAGTAAACAAATTTTCCTAATCTTTCTGTTCAAGCGCCATCTAC | 0.887 RPM ratio (pull-down/input)
GATGATTGTTCTCCCAGCTGATGAATTAGCGGAATCGAGTAAACAAATTTTCCTAATCTTTCTGTTCAAGCGCCATCTAC | 0.962 RPM ratio (pull-down/input)
GATGATTGTTCTCCCAGCTGATGAATTATCGGCGTCGAGTAAACAAATTTTCCTAATCTTTCTGTTCAAGCGCCATCTAC | 0.997 RPM ratio (pull-down/input)
GATGATTGTTCTCCCAGCTGATGAATTTTTCCAATCGAGTAAACAAATTTTCCTAATCTTTCTGTTCAAGCGCCATCTAC | 1.05 RPM ratio (pull-down/input)
GATGATTGTTCTCCCAGCTGATGAATTTGAGATTTCGAGTAAACAAATTTTCCTAATCTTTCTGTTCAAGCGCCATCTAC | 0.895 RPM ratio (pull-down/input)
GATGATTGTTCTCCCAGCTGATGAATTAATGAGCTCGAGTAAACAAATTTTCCTAATCTTTCTGTTCAAGCGCCATCTAC | 0.843 RPM ratio (pull-down/input)
GATGATTGTTCTCCCAGCTGATGAATTCCCGTCCTCGAGTAAACAAATTTTCCTAATCTTTCTGTTCAAGCGCCATCTAC | 0.781 RPM ratio (pull-down/input)
GATGATTGTTCTCCCAGCTGATGAATTTTATATGTCGAGTAAACAAATTTTCCTAATCTTTCTGTTCAAGCGCCATCTAC | 0.988 RPM ratio (pull-down/input)
GATGATTGTTCTCCCAGCTGATGAATTGCCGAGCTCGAGTAAACAAATTTTCCTAATCTTTCTGTTCAAGCGCCATCTAC | 0.861 RPM ratio (pull-down/input)
GATGATTGTTCTCCCAGCTGATGAATTGGGTGGATCGAGTAAACAAATTTTCCTAATCTTTCTGTTCAAGCGCCATCTAC | 0.852 RPM ratio (pull-down/input)
GATGATTGTTCTCCCAGCTGATGAATTAACATTATCGAGTAAACAAATTTTCCTAATCTTTCTGTTCAAGCGCCATCTAC | 1.16 RPM ratio (pull-down/input)
GATGATTGTTCTCCCAGCTGATGAATTTTCCTACTCGAGTAAACAAATTTTCCTAATCTTTCTGTTCAAGCGCCATCTAC | 0.89 RPM ratio (pull-down/input)
GATGATTGTTCTCCCAGCTGATGAATTACTGTGTTCGAGTAAACAAATTTTCCTAATCTTTCTGTTCAAGCGCCATCTAC | 1.34 RPM ratio (pull-down/input)
GATGATTGTTCTCCCAGCTGATGAATTAGCGAAGTCGAGTAAACAAATTTTCCTAATCTTTCTGTTCAAGCGCCATCTAC | 0.825 RPM ratio (pull-down/input)
GATGATTGTTCTCCCAGCTGATGAATTATTCATCTCGAGTAAACAAATTTTCCTAATCTTTCTGTTCAAGCGCCATCTAC | 1.05 RPM ratio (pull-down/input)
GATGATTGTTCTCCCAGCTGATGAATTTTGCTGGTCGAGTAAACAAATTTTCCTAATCTTTCTGTTCAAGCGCCATCTAC | 0.918 RPM ratio (pull-down/input)
GATGATTGTTCTCCCAGCTGATGAATTGCGAGAGTCGAGTAAACAAATTTTCCTAATCTTTCTGTTCAAGCGCCATCTAC | 0.971 RPM ratio (pull-down/input)
GATGATTGTTCTCCCAGCTGATGAATTCCAAAAATCGAGTAAACAAATTTTCCTAATCTTTCTGTTCAAGCGCCATCTAC | 1 RPM ratio (pull-down/input)
GATGATTGTTCTCCCAGCTGATGAATTACCGCAGTCGAGTAAACAAATTTTCCTAATCTTTCTGTTCAAGCGCCATCTAC | 0.938 RPM ratio (pull-down/input)
GATGATTGTTCTCCCAGCTGATGAATTCGATGAGTCGAGTAAACAAATTTTCCTAATCTTTCTGTTCAAGCGCCATCTAC | 0.87 RPM ratio (pull-down/input)
